# Results reported in the BET-seq Pho4 binding data (Le et al. 2018).
# The other results are listed elsewhere or left out. These are noisy estimates, calculated here from bound and input reads.
# Target: T1, Pho4 (S. cerevisiae) (UniProt P07270)
# T1 sequence: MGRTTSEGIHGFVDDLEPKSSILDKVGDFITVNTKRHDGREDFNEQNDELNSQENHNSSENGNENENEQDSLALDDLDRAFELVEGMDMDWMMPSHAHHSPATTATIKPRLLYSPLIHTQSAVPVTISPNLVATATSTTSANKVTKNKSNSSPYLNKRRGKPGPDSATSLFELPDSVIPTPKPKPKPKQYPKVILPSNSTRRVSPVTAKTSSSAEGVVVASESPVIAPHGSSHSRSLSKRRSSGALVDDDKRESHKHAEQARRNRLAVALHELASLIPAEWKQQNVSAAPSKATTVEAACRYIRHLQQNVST
# Test: relative binding free energy (BET-seq); higher = weaker binding
# Details: reference: library average
row,Sequence,relative binding free energy [kcal/mol]
1,GAATGCACGTGCGGGG,-0.06
2,TTATGCACGTGGGGGG,-0.16
3,GGTAACACGTGGGCAG,-0.16
4,TGAAGCACGTGGTCTG,-0.14
5,TCTTGCACGTGGTGCG,-0.05
6,GTTGCCACGTGTTGTA,0.02
7,GGAGTCACGTGGGGAG,-0.02
8,ATAGGCACGTGATCGT,-0.16
9,GTTAACACGTGGGTTG,-0.03
10,CGTGTCACGTGGTTTG,0.05
11,GGGGGCACGTGGCTTA,-0.14
12,ATTCGCACGTGAGATG,0.24
13,TAGTGCACGTGATATG,0.03
14,TATGTCACGTGATCAG,0.12
15,TATGGCACGTGGCTTT,-0.03
16,GGGCCCACGTGGGTGT,-0.14
17,TTTGTCACGTGGTTCA,-0.03
18,AATGTCACGTGCGCGT,-0.03
19,AAGTGCACGTGCGGGC,-0.1
20,CATTTCACGTGATAGT,0.24
21,AGTCGCACGTGGGTGG,-0.27
22,TGTGTCACGTGAGGAA,0.18
23,GGTACCACGTGGGTGG,-0.07

row,Sequence,relative binding free energy [kcal/mol]
1,GGGAACACGTGATTTA,0.25
2,GTTTTCACGTGACTAT,0.36
3,GGAATCACGTGGGTTA,-0.05
4,GTGGTCACGTGAAAAG,0.19
5,TTGGGCACGTGTGTGT,-0.04
6,GTTTTCACGTGATCAG,0.23
7,GTGAACACGTGTCGTT,0.1
8,GTAGTCACGTGGCTTT,0.01
9,GGGATCACGTGTGCAA,0.29
10,CTGTGCACGTGTATGG,-0.04
11,TTTAGCACGTGACGTA,0.04
12,GATTGCACGTGTGAAG,0.1
13,CTGTACACGTGAAAGT,0.43
14,TTGCTCACGTGGTGCT,0.06
15,CGGGCCACGTGAAGGG,0.02
16,ATATCCACGTGTAGGT,-0.03
17,TTGGTCACGTGAGGCA,0.34
18,CCAGGCACGTGTGGGC,0
19,TAAGGCACGTGGTCTT,-0.22
20,CGGGGCACGTGCTGGT,-0.21
21,TTATACACGTGTAATA,0.06
22,CGGGGCACGTGCTAGT,-0.21
23,ATTCGCACGTGAGGAG,0.04

row,Sequence,relative binding free energy [kcal/mol]
1,CGTATCACGTGCGGGT,0.08
2,TATGTCACGTGTATCT,-0.02
3,CGTGTCACGTGTTAGG,0
4,AGTCACACGTGGTGCG,0.14
5,ATTTTCACGTGTGTAG,0.25
6,GGGATCACGTGCGATT,0.25
7,TGGGCCACGTGAAGTT,0.28
8,CGTTTCACGTGGAGTC,0.46
9,GATGACACGTGATGTA,0.29
10,AGGAACACGTGTTGTA,0.04
11,ATAGCCACGTGTTGGT,-0.02
12,TAGATCACGTGTTTTA,0.14
13,ATGAACACGTGTAGTT,0.07
14,TATAGCACGTGGTGTT,-0.14
15,GAGTACACGTGTGGTA,0.18
16,TACGTCACGTGGTGGC,-0.02
17,ACAATCACGTGTTGGT,0.12
18,TTTCTCACGTGTAGTG,0.2
19,TGGGCCACGTGACGGT,-0.05
20,GTTTACACGTGATCGG,0.17
21,CGTCTCACGTGCGGGT,0.1
22,CTGTTCACGTGAGTAG,0.33
23,GTCATCACGTGAGTTT,0.26

row,Sequence,relative binding free energy [kcal/mol]
1,GCAAGCACGTGGCTGG,0
2,TGTTACACGTGTTCTT,0.13
3,ACTGGCACGTGGTTGG,-0.24
4,TGGGTCACGTGAGCAG,0.08
5,GGGTTCACGTGAATTT,0.57
6,TAGCTCACGTGTTTAT,0.23
7,CTTTTCACGTGTTTGT,0.13
8,TATATCACGTGTTGAG,0.04
9,TAGCACACGTGGGTAT,-0.02
10,AAGTGCACGTGAATAG,0.21
11,GTTCGCACGTGTGGGT,0.08
12,TGAAGCACGTGTAAAT,0.11
13,TGGTGCACGTGACGGC,0.19
14,TTGAGCACGTGTAGTA,0.03
15,AACGGCACGTGGGGAT,-0.06
16,TGTCACACGTGGGTAA,-0.09
17,TGGATCACGTGTTTTT,0.22
18,TTGAGCACGTGTGTTT,-0.05
19,TTATTCACGTGGAAGA,0.24
20,GCGGTCACGTGATGTT,0.39
21,TGGTTCACGTGCGTTT,0.26
22,ATGATCACGTGGTTTG,-0.01
23,TTGATCACGTGTGGCA,0.06

row,Sequence,relative binding free energy [kcal/mol]
1,AGTTTCACGTGTGCTA,0.22
2,TAGGACACGTGGTGAA,0.12
3,TGTATCACGTGTATGC,0.09
4,GATGACACGTGAGGTA,0.26
5,TGGTTCACGTGACTGA,0.33
6,TGCGGCACGTGGGGAC,-0.2
7,GGCTGCACGTGATAGG,0.07
8,CGGGGCACGTGAAAGC,0.23
9,CGATTCACGTGCGTGA,0.38
10,CACGGCACGTGTGGTA,0.01
11,CTTTTCACGTGGTTGA,0.19
12,ATAGACACGTGGTAAG,0.01
13,TTTTCCACGTGACGTG,0.16
14,GGTAGCACGTGCATGG,-0.01
15,GCTAGCACGTGTTATT,0.21
16,AAGAGCACGTGAGTGT,0.05
17,GTACGCACGTGTTAGG,-0.09
18,TGTCACACGTGTAGTG,0.09
19,ATATTCACGTGTTTGT,0.22
20,TGGGGCACGTGTCCAG,-0.17
21,AATGACACGTGGGGGA,-0.14
22,TCGCTCACGTGAGGGG,0.25
23,GTAGTCACGTGAATGT,0.3
